Experiments:
[1] = system: THC-induced impairment of pre-pulse inhibition; assay: THC-induced impairment of pre-pulse inhibition (PPI); assay type: in vivo; conditions: per os 3 h before THC 10 mg/kg; mice
Experimental: PPI was measured using automated PPI cages allowing the automatic PPI protocol delivery and the recording of the animal's startle reactions. Each mouse (at least n=8 per group) was placed in the PPI test 60 minutes post-THC for 45 minutes.
The PPI test included different types of trials consisting in the presentation of either the background noise, the startle stimulus (S; 120 dB) alone, one of the prepulse (73 dB, 76 dB or 82 dB) stimuli alone or a combination of one of each prepulse stimulus followed by the startle stimulus (PPI-S). The startle response following the pulse presentation was recorded and an index of PPI was calculated (% PPI=100×(S−PPI-S)/S).

[2] = system: THC-induced impairment of reality testing; assay: THC-induced impairment of reality testing (mediated aversion); assay type: in vivo; conditions: per os 3 h before THC 1 mg/kg ip; mice
Experimental: The realty-testing consists in four phases with different pairings (a pairing refers to the association of two stimuli at a time): habituation (3 days), preconditioning (6 pairings odor/taste, 12 days), conditioning (i.e. 3 pairings odor/injection of an agent inducing malaise, LiCl, 6 days), recovery day (1 day with water) and finally the tests (mediated aversion and direct aversion tests).
Mice were water deprived for 24 hours before starting the habituation that consisted in 1-hour access to water per day during 3 days in order to get used to receive liquid every day for 1 hour, and thus reach a constant consumption over the protocol. This was followed by the preconditioning phase in which the mice were given 1-hour access per day to a mixed solution (O1T1) with one odor (either almond or banana, O1) and one taste (either maltodextrine or sucrose, T1) in water. On day 2, mice received 1-hour access to the solution with the odor and taste not given the previous day (02T2). After 6 pairings of O1T1 and O2T2 (12 days), the conditioning phase was started.
At the first day of conditioning, mice were given 1-hour access to odorized water (O1) directly followed by intraperitoneal injection of saline. The following day, mice were given access to the second odorized water (O2) directly followed by an intraperitoneal injection of LiCl (0.3 M) at a volume of 10 ml/kg to create gastric discomfort. After 3 pairings of O1/saline and O2/LiCl (6 days), mice were given a recovery day with 1-hour access to water.
The next day, mediated aversion was assessed by performing a two-choice test with two bottles of water containing one of the two tastes: the taste paired with the odor associated with LiCl injection (T2) called C+; or the taste paired with the other odor that was associated with the saline injection (T1) called C-. […]

[3] = system: THC-induced dopamine release in the nucleus accumbens; assay: THC-induced dopamine release in the nucleus accumbens (microdialysis); assay type: in vivo; conditions: per os; THC 1 mg/kg ip; rats
Experimental: THC was solubilized in 0.9% NaCl containing ethanol (2%) and Tween80 (2%) that was also used as control vehicle (VEHTHC) and administered intraperitoneally in a volume of 1 ml/kg.
Rats (n=5-7 per group) were implanted under anesthesia with a guide-cannula just above the shell sub-regions of the right Nac. […] Dialysates were collected every 15 minutes. 180 minutes after the beginning of the perfusion, all animals received an injection of THC. DA outflow was then monitored for 120 minutes. The concentrations of DA in dialysate samples were analyzed by reverse-phase high-performance liquid chromatography (HPLC) coupled with electrochemical detection, as described previously (Leggio et al., 2009). DA content in each sample was expressed as the percentage of the average baseline level calculated from the three fractions preceding THC administration. The area under the curve (AUC) was calculated for each group from sampling time 0 min to 60 min after THC injection.

dogs = assay: 28-day oral toxicity study (GLP) in dogs; conditions: for Blood chemistry / Cardiovascular parameters / Organ weight / Urinalysis: dogs
From the text: […].

[4] = Metabolic profiling of [3H]-3pMBP in plasma and excreta in the rat (Radio-HPLC); assay type: in vivo
Experimental: The metabolic profile was evaluated in plasma, in urines and feces and the radio-labelled metabolites were identified by their retention time using Radio-HPLC analysis. The results are expressed as % of the sum of all the detected peak areas.

CYP2B6 = assay: CYP induction (mRNA level); assay type: in vitro ADME; conditions: 10 nM, 100 nM and 1 μM
CYP 2C19 = CYP 2C19 (Homo sapiens, UniProt P33261); assay: CYP inhibition in human liver microsomes; conditions: 10 μM
[5] = system: spontaneous behaviour in mice; assay: Spontaneous behaviour in the home cage (24 h video analysis); conditions: 15 mg/kg, 24 hours after administration
rats and dogs = assay: 28-day oral toxicity studies (GLP), results printed for rats and dogs together
[6] = system: THC-induced impairment of working memory; assay: THC-induced impairment of working memory (delayed matching-to-place Morris water maze); conditions: per os 3 h before THC 5 mg/kg ip; mice

Chain of CYP 2C19 (P33261 whole entry): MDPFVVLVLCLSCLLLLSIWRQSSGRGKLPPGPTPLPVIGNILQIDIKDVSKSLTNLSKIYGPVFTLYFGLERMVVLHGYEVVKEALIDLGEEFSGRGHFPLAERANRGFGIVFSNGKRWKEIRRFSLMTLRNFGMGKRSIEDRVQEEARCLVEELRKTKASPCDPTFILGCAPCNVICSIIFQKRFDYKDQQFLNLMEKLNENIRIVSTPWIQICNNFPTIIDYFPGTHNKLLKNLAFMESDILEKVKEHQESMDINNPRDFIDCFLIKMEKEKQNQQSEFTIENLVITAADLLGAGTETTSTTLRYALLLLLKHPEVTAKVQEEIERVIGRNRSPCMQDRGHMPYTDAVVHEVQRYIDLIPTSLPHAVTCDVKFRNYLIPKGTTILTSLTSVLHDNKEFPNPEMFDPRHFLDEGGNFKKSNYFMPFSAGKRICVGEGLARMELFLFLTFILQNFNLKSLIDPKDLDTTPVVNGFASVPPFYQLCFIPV

In the case of `COc1ccc(CO[C@H]2CC[C@@]3(C)C(=CC[C@H]4[C@@H]5CC[C@H](C(C)=O)[C@@]5(C)CC[C@@H]43)C2)cc1` [3pMBP, 3β-(4-methoxybenzyloxy)pregn-5-en-20-one], the “% inhibition” value [1] is reported as 100%, the ID50 [1] is reported as 0.0045 mg/kg and the ID100 [1] is reported as 0.015 mg/kg. The “% inhibition” value [2] was 100%, the ID50 [2] was <0.015 mg/kg and the ID100 [2] was 0.015 mg/kg. For the same compound, the ID50 [3] was 0.005 mg/kg, the ID100 [3] was 0.015 mg/kg and the “NOEL (Non observed effect level)” value (dogs; dog) was > 36 mg/kg/day/28 days. The Blood chemistry (dogs; 2 mg/kg, 28 days) was “NOED”, the Cardiovascular parameters (dogs; 2 mg/kg, 28 days) was “NAR, NOED” and the Organ weight (dogs; 2 mg/kg, 28 days) was “NOED”. The Urinalysis (dogs; 2 mg/kg, 28 days) was “NOED”, the Blood chemistry (dogs; 9 mg/kg, 28 days) was “NOED” and the Cardiovascular parameters (dogs; 9 mg/kg, 28 days) was “NAR, NOED”. For the same compound, the Organ weight (dogs; 9 mg/kg, 28 days) was “NOED”, the Urinalysis (dogs; 9 mg/kg, 28 days) was “NOED” and the Blood chemistry (dogs; 36 mg/kg, 28 (+14) days) was “NOED”. For the same compound, the Organ weight (dogs; 36 mg/kg, 28 (+14) days) was “NOED”, the Urinalysis (dogs; 36 mg/kg, 28 (+14) days) was “NOED” and the Blood chemistry (dogs; 36 mg/kg, 28 days) was “NOED”. The Cardiovascular parameters (dogs; 36 mg/kg, 28 days) was “NAR, NOED”, the Organ weight (dogs; 36 mg/kg, 28 days) was “NOED” and the Urinalysis (dogs; 36 mg/kg, 28 days) was “NOED”. The “3pMBP peak, % of all integrated peaks” value ([4]; rat plasma, 3 h post oral administration) was 100%, the “3pMBP peak, % of all integrated peaks” value ([4]; rat plasma, 6 h post oral administration) was 78% and the “Presence of 3pMBP in the plasma” value ([4]; rat plasma, 24 hours) was “not present”. For the same compound, the “3pMBP peak, % of integrated peaks” value ([4]; rat urine, 0-6-hour interval) was “≈ 30%”, the “Presence of 3pMBP in the urine” value ([4]; rat urine, 6-24 h and 24-48 h) was “no 3pMBP was detected” and the “3pMBP detected in the urine” value ([4]; rat urine, each time interval) was < 0.5 % dose. The “Expression of CYP2B6” value (CYP2B6) was “did not increase the expression”, the “Inhibition of CYP 2C19 activity” value (CYP 2C19) was “no significant inhibition” and the “Effects on behaviour per se (spontaneous behaviour in the home cage)” value [5] was “no detectable effects on behaviour per se”. The Body temperature (rats and dogs; 2 mg/kg, 28 days) was “NOE”, the Clinical signs (rats and dogs; 2 mg/kg, 28 days) was “NOE” and the Mortality (rats and dogs; 2 mg/kg, 28 days) was “NOE”. For the same compound, the Body temperature (rats and dogs; 9 mg/kg, 28 days) was “NOE”, the Clinical signs (rats and dogs; 9 mg/kg, 28 days) was “NOE” and the Mortality (rats and dogs; 9 mg/kg, 28 days) was “NOE”. The Body temperature (rats and dogs; 36 mg/kg, 28 (+14) days) was “NOE”, the Clinical signs (rats and dogs; 36 mg/kg, 28 (+14) days) was “NOE” and the Mortality (rats and dogs; 36 mg/kg, 28 (+14) days) was “NOE”. For the same compound, the Body temperature (rats and dogs; 36 mg/kg, 28 days) was “NOE”, the Clinical signs (rats and dogs; 36 mg/kg, 28 days) was “NOE” and the Mortality (rats and dogs; 36 mg/kg, 28 days) was “NOE”. For the same compound, the “% inhibition” value [6] was 100% and the ID100 [6] was 0.15 mg/kg.

From patent US12447159B2 (AELIS FARMA, priority 2018, dated 2025)
